Experimental data reported in the supplement of paper PMC4967469.
A lower IC50 marks a more sensitive line; fits outside the tested doses are given as limits. AUC, from the same fit, is the share of area under the viability curve across the 256-fold dose range; the more sensitive the line, the further below 1. For some assays here: The top dose, if marked as inferred, is not printed in the source and was worked back from the curve model. For some assays here: An entry number marks a drug with two screens in the source, which often give different values.

What was measured:
Experiment in all cases: Viability of human cancer cell lines after 72 h of drug (GDSC screen)
XMD13-2 = compound: O=C(NC1CC1)c1cccc(-c2ccc3c(NC(=O)C4CC4)n[nH]c3c2)c1 [XMD13-2]; conditions: top dose 10.24 µM; top dose inferred
Protocol: (§1)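 Human cancer cell lines in 384-well plates, medium with 10% serum, drug for 72 h over a 256-fold dose range (nine 2-fold or five 4-fold steps up to the top dose). Adherent lines were fixed and stained with the nucleic acid dye Syto60, suspension lines read with resazurin; signal relative to control wells, capped at 0 and 100%. One two-parameter sigmoid per drug and line, fitted in a mixed model over all curves with the slope shared within a line.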

SNX-2112 = compound: CC1(C)CC(=O)c2c(C(F)(F)F)nn(-c3ccc(C(N)=O)c(N[C@H]4CC[C@H](O)CC4)c3)c2C1 [SNX-2112]; conditions: top dose 2.56 µM
Protocol: as §1

Vinblastine = compound: CC[C@]1(O)C[C@@H]2CN(CCc3c([nH]c4ccccc34)[C@@](C(=O)OC)(c3cc4c(cc3OC)N(C)[C@H]3[C@@](O)(C(=O)OC)[C@H](OC(C)=O)[C@]5(CC)C=CCN6CC[C@]43[C@@H]65)C2)C1 [Vinblastine]; conditions: top dose 0.1 µM; top dose inferred
Protocol: as §1

Afatinib = compound: CN(C)C/C=C/C(=O)Nc1cc2c(Nc3ccc(F)c(Cl)c3)ncnc2cc1O[C@H]1CCOC1 [Afatinib]
Protocol: as §1

PF-562271 = compound: CN(c1ncccc1CNc1nc(Nc2ccc3c(c2)CC(=O)N3)ncc1C(F)(F)F)S(C)(=O)=O [PF-562271]; conditions: top dose 2.56 µM; top dose inferred
Protocol: as §1

[1] = top dose 0.5 µM, screen: GDSC drug entry 1032
[2] = top dose 10 µM, screen: GDSC drug entry 1377, top dose inferred

| Cell Line | AUC (XMD13-2) | IC50 (XMD13-2) [µM] | AUC (SNX-2112) | IC50 (SNX-2112) [µM] | AUC (Vinblastine) | IC50 (Vinblastine) [µM] | AUC (Afatinib; [1]) | IC50 (Afatinib; [1]) [µM] | AUC (Afatinib; [2]) | IC50 (Afatinib; [2]) [µM] | AUC (PF-562271) | IC50 (PF-562271) [µM] |
| --- | --- | --- | --- | --- | --- | --- | --- | --- | --- | --- | --- | --- |
| CAL-72 (osteosarcoma, adherent) | 0.979 | > 10.2 | 0.984 | > 2.56 | 0.505 | 0.00646 | 0.943 | > 0.5 | 0.966 | > 10 | 0.917 | > 2.56 |
| CAL-78 (chondrosarcoma, adherent) | 0.98 | > 10.2 | 0.58 | 0.275 | 0.637 | 0.0158 | 0.986 | > 0.5 | 0.946 | > 10 | 0.891 | > 2.56 |
| CAL-85-1 (breast, adherent) | 0.881 | > 10.2 | 0.777 | 1.34 | 0.681 | 0.0232 | 0.956 | > 0.5 | 0.756 | 4.33 | 0.804 | 1.74 |
| CAL-120 (breast, adherent) | 0.94 | > 10.2 | 0.566 | 0.256 | 0.558 | 0.00942 | 0.959 | > 0.5 | 0.92 | > 10 | 0.813 | 1.91 |
| CAPAN-1 (pancreas, adherent) | 0.973 | > 10.2 | 0.589 | 0.289 | 0.795 | – | 0.953 | > 0.5 | 0.955 | > 10 | 0.948 | > 2.56 |
| CAS-1 (glioma, adherent) | 0.958 | > 10.2 | 0.899 | > 2.56 | 0.763 | 0.0493 | 0.981 | > 0.5 | 0.974 | > 10 | 0.912 | > 2.56 |
| CCK-81 (large intestine, adherent) | 0.938 | > 10.2 | 0.468 | 0.131 | 0.939 | > 0.1 | 0.784 | 0.199 | 0.96 | > 10 | 0.973 | > 2.56 |
| CESS (acute myeloid leukaemia, suspension) | 0.696 | 2.07 | 0.161 | 0.0183 | 0.928 | > 0.1 | 0.989 | > 0.5 | 0.982 | > 10 | 0.964 | > 2.56 |
| CGTH-W-1 (thyroid, adherent) | 0.944 | > 10.2 | 0.828 | 1.57 | 0.354 | 0.00248 | 0.984 | > 0.5 | 0.982 | > 10 | 0.842 | 1.78 |
| CHL-1 (melanoma, adherent) | 0.905 | > 10.2 | 0.372 | 0.0724 | 0.482 | 0.00559 | 0.446 | 0.0225 | 0.252 | 0.128 | 0.869 | 2.13 |
| CHP-126 (neuroblastoma, suspension) | 0.965 | > 10.2 | 0.87 | 2.5 | 0.723 | 0.0273 | 0.987 | > 0.5 | 0.986 | > 10 | 0.945 | > 2.56 |
| CHP-212 (neuroblastoma, adherent) | 0.988 | > 10.2 | 0.983 | > 2.56 | 0.419 | 0.00382 | 0.971 | > 0.5 | 0.986 | > 10 | 0.806 | 1.18 |
| CHSA0011 (chondrosarcoma, adherent) | 0.961 | > 10.2 | 0.914 | > 2.56 | 0.793 | 0.0678 | 0.98 | > 0.5 | 0.913 | > 10 | 0.908 | > 2.56 |
| CHSA8926 (chondrosarcoma, adherent) | 0.97 | > 10.2 | 0.753 | 1.19 | 0.596 | 0.0128 | 0.966 | > 0.5 | 0.908 | > 10 | 0.748 | 1.14 |
| CL-11 (large intestine, adherent) | 0.968 | > 10.2 | 0.951 | > 2.56 | 0.93 | > 0.1 | 0.982 | > 0.5 | 0.986 | > 10 | 0.976 | > 2.56 |
| CMK (acute myeloid leukaemia, suspension) | 0.864 | 6.77 | 0.15 | 0.0171 | 0.893 | 0.087 | 0.99 | > 0.5 | 0.947 | > 10 | 0.906 | 2.55 |
| COLO-205 (large intestine, suspension) | 0.843 | 7.09 | 0.361 | 0.0665 | 0.61 | 0.0125 | 0.986 | > 0.5 | 0.979 | > 10 | 0.672 | 0.479 |
| COLO-320-HSR (large intestine, suspension) | 0.983 | > 10.2 | 0.359 | 0.0693 | 0.848 | 0.06 | 0.988 | > 0.5 | 0.99 | > 10 | 0.95 | > 2.56 |
| COLO-668 (small cell lung carcinoma, adherent) | 0.915 | > 10.2 | 0.409 | 0.0903 | 0.941 | > 0.1 | 0.989 | > 0.5 | 0.982 | > 10 | 0.974 | > 2.56 |
| COLO-678 (large intestine, semi-adherent) | 0.984 | > 10.2 | 0.89 | > 2.56 | 0.912 | > 0.1 | 0.833 | 0.464 | 0.845 | > 10 | 0.958 | > 2.56 |
| COLO-679 (melanoma, adherent) | 0.923 | > 10.2 | 0.605 | 0.323 | 0.635 | 0.0155 | 0.972 | > 0.5 | 0.949 | > 10 | 0.883 | > 2.56 |
| COLO-680N (oesophagus, adherent) | 0.934 | > 10.2 | 0.981 | > 2.56 | 0.833 | 0.0817 | 0.959 | > 0.5 | 0.96 | > 10 | 0.91 | > 2.56 |
